Data on 32 molecules can be found in the supplement of paper PMC11369174, “Proteome-scale characterisation of motif-based interactome rewiring by disease mutations” (Molecular Systems Biology, 2024).

The other results are listed elsewhere or left out. This is a noisy data set.

Holding throughout (experiment): mutation enrichment score (mutant vs wild-type peptide binding to bait); baits are purified protein domains named by gene / domain / UniProt id / residues; peptides come from disordered regions of human proteins; higher = mutation enhances binding relative to wild type
The target in assay [1] is GABARAPL1_ATG8__Q9H0R8_2_115. The note with it: wild-type window: ….
In assay [2] the target is MAP1LC3A_ATG8__Q9H492_2_121. As to conditions: wild-type window: ….
Assay [3] deals with MAP1LC3B_ATG8__Q9GZQ8_2_119. As to conditions: wild-type window: ….
Assay [4] addresses GABARAPL2_ATG8__P60520_2_115. As to conditions: wild-type window: ….
Assay [5] has as its target GABARAP_ATG8__O95166_2_115. As to conditions: wild-type window: ….
For assay [6], the target named is Keap1_KELCH__Q14145_321_609. The note with it: number of wild-type / mutant comparisons summed (bounds the score): 18; paper call: diminished; wild-type window: ….
The target in assay [7] is T1, PEX14_Pex14__O75381_16_84.
T1 chain: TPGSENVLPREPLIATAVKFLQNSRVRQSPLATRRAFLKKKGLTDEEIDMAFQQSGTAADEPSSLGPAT
The note with it: number of wild-type / mutant comparisons summed (bounds the score): 12, wild-type window: ….

The target in another assay is T2, GGA3_VHS__Q9NZ52_1_166.
T2 chain: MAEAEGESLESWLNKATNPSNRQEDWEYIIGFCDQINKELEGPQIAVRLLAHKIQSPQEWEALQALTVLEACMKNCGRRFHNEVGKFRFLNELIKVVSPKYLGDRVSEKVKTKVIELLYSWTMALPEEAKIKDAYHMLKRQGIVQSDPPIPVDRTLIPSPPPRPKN
The note with it: number of wild-type / mutant comparisons summed (bounds the score): 12; paper call: no_effect; wild-type window: ….

Another assay addresses T3, SPOP_MATH__O43791_19_176.
T3 chain: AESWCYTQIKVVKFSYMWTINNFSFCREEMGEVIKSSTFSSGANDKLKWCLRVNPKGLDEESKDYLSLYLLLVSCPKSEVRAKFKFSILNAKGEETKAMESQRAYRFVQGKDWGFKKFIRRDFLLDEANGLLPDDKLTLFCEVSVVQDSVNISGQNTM
The note with it: number of wild-type / mutant comparisons summed (bounds the score): 6; paper call: no_effect; wild-type window: ….

The target in assay [8] is USP7_MATH-TRAF__Q93009_53_206. The note with it: paper call: no_effect, wild-type window: ….
Where [9] appears, read: number of wild-type / mutant comparisons summed (bounds the score): 12, paper call: no_effect.
The mark [10] stands for this setting: number of wild-type / mutant comparisons summed (bounds the score): 12, paper call: diminished.
[11] abbreviates: number of wild-type / mutant comparisons summed (bounds the score): 6, paper call: no_effect.
[12] abbreviates: number of wild-type / mutant comparisons summed (bounds the score): 12, paper call: enhanced.
The mark [13] stands for this setting: number of wild-type / mutant comparisons summed (bounds the score): 18, paper call: no_effect.
Where [14] appears, read: number of wild-type / mutant comparisons summed (bounds the score): 18, paper call: enhanced.
The mark [15] stands for this setting: number of wild-type / mutant comparisons summed (bounds the score): 10.
[16] abbreviates: number of wild-type / mutant comparisons summed (bounds the score): 6, paper call: enhanced.

Chain of GABARAPL2_ATG8__P60520_2_115 (chain, as listed by the source): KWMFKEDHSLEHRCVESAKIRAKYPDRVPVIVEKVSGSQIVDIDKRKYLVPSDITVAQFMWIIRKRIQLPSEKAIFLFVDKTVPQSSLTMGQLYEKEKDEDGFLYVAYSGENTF
Chain of USP7_MATH-TRAF__Q93009_53_206 (chain, as listed by the source): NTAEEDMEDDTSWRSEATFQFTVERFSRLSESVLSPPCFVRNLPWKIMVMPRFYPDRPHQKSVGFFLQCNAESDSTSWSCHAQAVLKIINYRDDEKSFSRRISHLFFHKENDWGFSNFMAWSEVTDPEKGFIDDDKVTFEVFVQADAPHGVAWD
Chain of GABARAP_ATG8__O95166_2_115 (chain, as listed by the source): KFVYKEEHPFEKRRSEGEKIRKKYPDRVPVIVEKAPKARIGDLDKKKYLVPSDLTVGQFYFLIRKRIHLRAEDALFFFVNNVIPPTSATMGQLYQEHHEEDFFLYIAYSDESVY
Chain of Keap1_KELCH__Q14145_321_609 (chain, as listed by the source): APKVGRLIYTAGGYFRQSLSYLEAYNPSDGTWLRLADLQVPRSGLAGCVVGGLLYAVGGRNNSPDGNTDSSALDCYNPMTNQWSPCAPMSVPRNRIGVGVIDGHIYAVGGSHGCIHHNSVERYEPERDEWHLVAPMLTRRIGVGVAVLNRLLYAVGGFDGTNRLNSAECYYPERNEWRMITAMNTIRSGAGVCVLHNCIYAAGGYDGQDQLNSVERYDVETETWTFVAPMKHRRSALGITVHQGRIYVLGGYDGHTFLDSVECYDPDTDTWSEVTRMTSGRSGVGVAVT

As to LFGPKNDLEDYDADSDFEVLTKTAHGHLVPDRVDKDKEATK [M1347T M1347T], the results for the mutation enrichment score in assay [1] (setting [9]), in assay [2] (setting [10]) and in assay [3] (setting [10]) were -3, -6 and -9, respectively.

As for GWIAILGAIWLLILADIHDFVIILHRVEWATLLFFAALFVL [E671V E671V], the mutation enrichment score in assay [1] (setting [11]) is -3; in assay [4] (setting [11]), -2.4.

SDNCSGGDDDWTHLSSKEVDLSTGELQSLQMPESEGPSSLD [P348L P348L]: the mutation enrichment score was 10 in assay [1] (setting [12]); 7.7 in [4] (setting [12]); 5.5 in assay [5] (setting [12]); -16 in assay [6]; 7.8 in [2] (setting [12]); 7.6 in [3] (setting [12]).

In the case of SNCKQVIGTGSFFPKGEDFYSVTCHETKFAKHCVKCNKAIT [C150S C150S], the mutation enrichment score in [1] (setting [11]) was 0.

Consider VLAQLEEIEKERDQAIQSRDWIQLQYSQSLIEKDQYRKQVR [R404W R404W], for which the figures for the mutation enrichment score in [1] (setting [11]) and in [3] (setting [11]) were 5 and 3, respectively.

IWLLILADIHDFEIILHRVECATLLFFAALFVLMEALAHLH [W679C W679C]: the mutation enrichment score was -3 in assay [1] (setting [11]) and -4 in assay [4] (setting [11]).

In the case of IWLLILADIHDFEIILHRVERATLLFFAALFVLMEALAHLH [W679R W679R], the mutation enrichment score was -3 in assay [1] (setting [11]), -2.8 in assay [4] (setting [11]), 0.27 in assay [5] (setting [11]) and 3.6 in assay [2] (setting [11]).

On to IPFEKSKVLFTLEELDEFTFMDETDQQAVPDVTRIGPSQEK [V1867M V1867M], for which the mutation enrichment score in [1] (setting [11]) is -2; in [4] (setting [11]) it was -5.

On to EQMRKIALESEGRPEEQMESGNCSGGDDDWTHLSSKEVDPS [D329G D329G], for which the mutation enrichment score in [1] (setting [11]) stood at 2; in [2] (setting [11]) it was 3; in [3] (setting [11]), 5.3.

Regarding GVEVKKEVGVSITGTTVREEHFEVLHGREAKVTETARVPAP [R915H R915H], the mutation enrichment score in assay [1] (setting [13]) is -5.7; in [4] (setting [9]), -5; in assay [2] (number of wild-type / mutant comparisons summed (bounds the score): 18, paper call: diminished) it was -6.7; in [3] (setting [13]), -6.6.

As for KQVIGTGSFFPKGEDFYCVTYHETKFAKHCVKCNKAITSGG [C153Y C153Y], the mutation enrichment score in assay [1] (setting [11]) turned out to be 0.

For AILGAIWLLILADIHDFEIIIHRVEWATLLFFAALFVLMEA [L674I L674I], the mutation enrichment score in [1] (setting [11]) was -0.18; in assay [4] (setting [11]), 0.016; in [2] (setting [11]), 1.1; in assay [3] (setting [11]), 2.9.

AILGAIWLLILADIHDFEIIVHRVEWATLLFFAALFVLMEA [L674V L674V]: the values for the mutation enrichment score in [1] (setting [11]) and in [4] (setting [11]) were -3 and -4, respectively.

For ERERCDGGLPGNTHLLPLRAMDFEVLSTKFEMQDLCFLGPF [T3016M T3016M], the values for the mutation enrichment score in assay [1] (setting [11]), in [2] (setting [13]) and in assay [3] (setting [13]) were 5, 1.7 and 4.9, respectively.

As to ALILDNKYTEHSTVGLAQQWVQLDQLGMRMQHNLEQQIQAR [D2295V D2295V], the mutation enrichment score in assay [1] (setting [9]) was 4; in assay [4] (setting [14]) it was 8; in assay [2] (setting [12]), 12; in [3] (setting [9]), 3; in assay [7] (paper call: diminished), -7.

Regarding ERLQFETADDEDFIWVQENIVEIILQLQKLTGQQGEEPSLV [D3555V D3555V], the mutation enrichment score in [1] (setting [11]) was -1.

For IYSFGLIIWEMARRCITGGIMEEYQLPYYNMVPSDPSYEDM [V450M V450M], the mutation enrichment score in [1] (setting [9]) was -2.

Take RFPFYRENKQGWQNSIRHNLLLNECFVKVPRDDKKPGKGSY [S125L S125L]: in assay [1] (setting [11]), the mutation enrichment score was 0.31.

Take PAPLCHSDDYVHISLPQATVIPPRKEERMDSARPCLHRQHH [T417I T417I]: the mutation enrichment score was determined as 5.7 in [1] (setting [11]); 5.8 in assay [4] (setting [11]); 2.8 in assay [5] (setting [11]); 5.8 in [2] (setting [11]); 5.1 in assay [3] (setting [11]).

Turning to TRLLRKQAEEVNTEWEKLNLRSADWQRKIDETLERLQELQE [H2921R H2921R], the mutation enrichment score in assay [1] (setting [10]) was -6; in [5] (setting [9]), -3.

As to PSGHPDQTGTNQHFVMVEVHHPDSEPDVNEVRALPQTRTAS [R728H R728H], the mutation enrichment score turned out to be 5 in assay [1] (setting [9]), 9 in assay [4] (setting [12]) and 2.7 in assay [5] (setting [9]).

As to ARRCSVTSMESTVSSGTQTTIQDDPEQFEVIKQQKEIIEHG [V630I V630I], in [1] (setting [11]), the mutation enrichment score turned out to be 0.

As for GEPKDGGGTEITNYIVEKRELGTTAWQLVNSSVKRTQIKVT [S29710L S29710L], the mutation enrichment score is -5.4 in [1] (setting [9]); -4.4 in [4] (setting [9]); -4 in assay [5] (setting [9]); -2 with GGA3_VHS__Q9NZ52_1_166; -4 in the assay with SPOP_MATH__O43791_19_176; -3 in assay [8] (setting [15]).

As for ANAGKYTCQIKNDAGMQECFTTLSVLEPATIVEKPESIKVT [A8505T A8505T], the results for the mutation enrichment score in [1] (setting [11]), in [2] (setting [16]) and in assay [3] (setting [16]) were 4, 6 and 6, respectively.

In the case of SASSMTEMKFASMSAQSMSSTQESFVEMSSSSFMGISNMTQ [M34218T M34218T], the mutation enrichment score is -5 in [1] (setting [13]) and 1.2 in [8] (number of wild-type / mutant comparisons summed (bounds the score): 15).

In the case of DEELAVDLEALVSKAEEEFFNIIFAELKKKEADAIKLTPVP [D554N D554N], the values for the mutation enrichment score in [1] (setting [11]), in assay [3] (setting [11]) and in assay [7] (paper call: no_effect) were 5, 1 and 3.3, respectively.

Turning to KSEAGVEVKKEVGVSITGTTIREERFEVLHGREAKVTETAR [V911I V911I], the mutation enrichment score in [1] (setting [10]) was -6.1; in [4] (setting [11]) it was -4; in [2] (setting [10]), -7.5; in assay [3] (setting [10]), -8.9.

With QSRSSLNAKPHDSLDLNCDSWDFVAAIISIPTPPANTPDES [R592W R592W], the mutation enrichment score in assay [1] (setting [12]) came to 11; in [4] (setting [12]), 8; in assay [5] (setting [12]), 10; in [2] (setting [12]), 9; in assay [3] (setting [12]), 8.

As to MNMFQAPTLPDISDDKDEWQFLDQNEDAFEAQFQKNVRSSG [S492F S492F], the mutation enrichment score in [1] (setting [14]) worked out at 16; in assay [4] (setting [12]), 6; in assay [5] (setting [13]), 4; in assay [2] (setting [14]), 5; in [3] (setting [14]), 12.

Turning to SWGEPKDGGGTEITNYIVEKHESGTTAWQLVNSSVKRTQIK [R29708H R29708H], the mutation enrichment score was -3.7 in assay [1] (setting [9]); -0.31 in assay [4] (setting [9]); -1.5 in assay [5] (setting [9]); -2 in the assay with GGA3_VHS__Q9NZ52_1_166; -2.6 with SPOP_MATH__O43791_19_176; -3 in assay [8] (setting [15]).

LFLRRRAVVKEPLLPPEDDTWDNVYYYDEEGGGEEDQDFDL [R749W R749W]: the mutation enrichment score in assay [1] (setting [12]) came out at 7; in assay [2] (setting [12]), 6; in assay [3] (setting [12]), 9.

Take GAPGGFVHSAAAAAAAAAAANSPVYVPTTRVGSMLPGLPYH [S184N S184N]: the mutation enrichment score in assay [1] (setting [11]) was -1.
